Data from PubChem BioAssay AID686970 (National Center for Advancing Translational Sciences (NCATS), 2013).
Among all 360,000 compounds or so, about 6,000 (1.7%) were called active. Inconclusive means that the source gave no clear call. Such entries were picked first, then a sample of the others. The call rests on the fitted dose curve; in most records, active means well fitted cell-killing curve with a large enough effect; inconclusive means small, poorly fitted or top-dose-only effect, or effect the other way; inactive means flat fitted curve, though single readings scatter. Potencies of inconclusive entries are left out as doubtful fits.

test: qHTS for induction of synthetic lethality in tumor cells producing 2HG: qHTS for the HT-1080-NT fibrosarcoma cell line; conditions: HT-1080-NT fibrosarcoma viability, CellTiter-Glo ATP luminescence, 48 h; activity, negative = less viability: at 46.1 µM (top of the series) unless noted;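 further: NT is the 2HG producing partner of a matched IDH1 knockdown line; nearly all actives have a fitted effect of over 55% in size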;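 on activity, negative = less viability: 0% = DMSO-treated cells and -100% = media-only wells without cells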
Method in brief: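 Fibrosarcoma NT cells, 750 per well in 5% FBS RPMI, were exposed to compound for 48 hours. Viability: CellTiter-Glo luminescence.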
Potency means the concentration at half of the fitted maximal effect; tags describe the fitted curve by direction and shape.

| SMILES | Potency | activity, negative = less viability |
| --- | --- | --- |
| O=C(CNc1cccc(S(=O)(=O)N2CCCCCC2)c1)Nc1cccc([N+](=O)[O-])c1 | inconclusive [cytotoxic, single point] |  |
| COc1ccccc1-c1cc(C(F)(F)F)nc(S(C)(=O)=O)n1 | inconclusive [cytotoxic, single point] |  |
| COc1ccc(C2CC(c3ccccc3)=NN2c2ccc(S(N)(=O)=O)cc2)cc1OC (stereo not given) | inconclusive [cytotoxic, single point] |  |
| COc1ccc(N2CC(NC(=O)c3ccc4ccccc4c3)CC2=O)cc1OC (stereo not given) | inactive |  |
| Cc1ccccc1S(=O)(=O)Nc1ncc(C(F)(F)F)cc1Cl | inactive |  |
| O=S(=O)(Nc1nc2ccccc2s1)c1ccc(Br)s1 | inconclusive [cytotoxic, single point] |  |
| CCN1CCN(CC(=O)n2c3c(c4ccccc42)CC(C)CC3)CC1 (stereo not given) | inconclusive [cytotoxic, partial curve] |  |
| Cc1ccccc1C(c1ncccc1C)N(C)C(=O)C1CCN(CCOc2ccc(Cl)cc2Cl)CC1 (stereo not given) | inconclusive [cytotoxic, single point] |  |
| COc1cccc(/C=N/NC(=O)C(=O)Nc2ccccc2OC(F)(F)C(F)F)c1O | inconclusive [cytotoxic, full curve] |  |
| O=C(Nc1cccc(Br)c1)c1ccc(CN2CCc3ccccc3C2)cc1 | active: 16.4 µM |  |
| CC1CCN(S(=O)(=O)c2ccc(NC(=O)Cc3ccccc3)cc2)CC1 | inconclusive [cytotoxic, single point] |  |
| N#C/C(=C/c1ccco1)C(N)=S | inconclusive [rising, single point] |  |
| CCC(=O)Nc1nonc1-c1nc2ccccc2n1Cc1ccccc1 | inconclusive [cytotoxic, partial curve] |  |
| COc1ccc(CNC(=O)c2ccc3c(c2)NC(=O)C(C)S3)cc1 (stereo not given) | inactive |  |
| Cc1ccc(CN2CC(N3CCC(Cc4ccccc4)CC3)CS2(=O)=O)cc1 (stereo not given) | inconclusive [cytotoxic, partial curve, poor fit] |  |
| O=C(Nc1ccc(F)cc1)C1CCCN1S(=O)(=O)c1cccc2nsnc12 (stereo not given) | inconclusive [rising, single point] |  |
| CCOCCCn1c(=N)c(C(N)=S)cc2c(=O)n3cccc(C)c3nc21 | inactive |  |
| Cc1ccc(NC(=O)CS(=O)CC(=O)Nc2ccc(N3CCOCC3)cc2)cc1Cl (stereo not given) | inconclusive [cytotoxic, single point] |  |
| C[C@H](CO)N1C[C@H](C)[C@H](CN(C)C(=O)Nc2cccc(C(F)(F)F)c2)OCc2cnnn2CCCC1=O | inactive |  |
| O=C(O)/C=C/C(=O)c1ccc2c(c1)CCc1ccccc1-2 | active: 18.4 µM |  |
| CS(=O)(=O)c1nc(-c2ccc(Br)cc2)cc(-c2ccccc2)c1C#N | inconclusive [cytotoxic, single point] |  |
| COc1ccc(S(=O)(=O)N2CCOCC2)cc1NC(=O)C1CC(=O)N(c2ccc3c(c2)OCCO3)C1 (stereo not given) | inactive |  |
| CCOC(=O)c1cc(CC)sc1NC(=O)C1CC(=O)NN1Cc1ccccc1 (stereo not given) | inconclusive [cytotoxic, single point] |  |
| C=C(C)C(=O)N1CC2(CC(c3cccc(NC(=O)CC)c3)=NO2)C[C@H]1C(N)=O (stereo not given in full) | inactive |  |
| COC(=O)Nc1nnc(-c2ccccc2Cl)s1 | inactive |  |

| SMILES | Potency | activity, negative = less viability |
| --- | --- | --- |
| COc1ccc(C(=O)/C=C/Nc2ccc(NC(C)=O)cc2)cc1OC | inconclusive [cytotoxic, single point] |  |
| COc1ccc(C)cc1NC(=S)NNC(=O)c1c(Br)cnn1C | inconclusive [cytotoxic, single point] |  |
| CCCc1ccc(C(=O)NNc2cc(Cl)ccc2Cl)cc1 | inconclusive [cytotoxic, partial curve] |  |
| COc1ccc(/C=C/C(=O)c2cccc(-n3cnnn3)c2)cc1O | inconclusive [cytotoxic, single point] |  |
| C/C(CC(=O)NCCCN1CCOCC1)=N\NC(=O)COc1ccc(C)cc1 | inactive |  |
| CC(=O)NC(c1ccccc1)c1nc(-c2cccc(C(C)C)c2)cs1 (stereo not given) |  | inconclusive: 2.53% |
| O=C(NCc1ccccc1)c1c(Cl)nc(Cl)c(Cl)c1Cl | active: 10.3 µM |  |
| CCOc1ccccc1C(=O)Nc1ccsc1C(=O)OC | inconclusive [cytotoxic, single point] |  |
| COC(=O)CCC(=O)c1ccn(S(=O)(=O)c2ccccc2)c1 | inactive |  |
| Cc1ccccc1NC(=O)c1c(C)nn(-c2ccccc2)c1Cl | inactive |  |
| C/C(CC(=O)Nc1cccc(C(F)(F)F)c1)=N\NC(=O)c1ccncc1 | inconclusive [cytotoxic, single point] |  |
| Clc1ccc2oc(SCc3cccnc3)nc2c1 | inactive |  |
| O=C(N/N=C/C(Cl)=C/c1ccccc1)c1cnccn1 | inactive |  |
| Cc1cccc(Nc2ccccc2C(=O)NCc2ccco2)c1C | inconclusive [cytotoxic, partial curve] |  |
| O=C(CSc1nnc(-c2ccc3c(c2)OCO3)o1)Nc1ncc(Cl)cc1Cl |  | inconclusive: -30.9% [cytotoxic] |
| CCOc1ccc(CCNC(=O)COC(=O)c2ccccc2O)cc1OCC | inactive |  |
| COc1ccc(S(=O)(=O)N2CCN(C(=O)C3COc4ccccc4O3)CC2)cc1 (stereo not given) |  | inactive: 3.69% [at 9.24 µM] |
| O=C1NC[C@H](Cc2ccccc2)N(C[C@H]2CCCN2C[C@H](Cc2ccccc2)N2C[C@H](Cc3ccccc3)N(CCc3ccccc3)C(=O)C2=O)C1=O | inconclusive [cytotoxic, single point] |  |
| CC(=O)OCCNc1nc(-c2ccccc2)nc2ccccc12 | inactive |  |
| CC1CCN(S(=O)(=O)c2ccc(Oc3ccc([N+](=O)[O-])cc3)cc2)CC1 | inconclusive [cytotoxic, single point] |  |
| C=C1C(=O)[C@]23C[C@H]1CC[C@H]2[C@]1(C)[C@@H](OC(C)=O)CC[C@@](C)(C(=O)OC)[C@H]1C[C@@H]3OC(C)=O | active: 3.66 µM |  |
| Cc1ccccc1OCCOc1ccc([N+](=O)[O-])cc1/C=N/n1cnnc1 | active: 2.31 µM |  |
| CN(CC(=O)Nc1ccc(Cl)c(Cl)c1)CC(=O)N1CCc2ccccc21 | inconclusive [cytotoxic, single point] |  |
| Cc1ccc(NC(=O)C2CCN(c3ncnc4c3nc3n4CCCCC3)CC2)nc1 | inactive |  |
| CCCc1ccc(OCC(=O)NNC(=S)NC(=O)c2ccco2)cc1 | inconclusive [cytotoxic, partial curve] |  |

| SMILES | Potency | activity, negative = less viability |
| --- | --- | --- |
| C(=N\Nc1nc(-c2ccccc2)cs1)/c1cccnc1 | inconclusive [cytotoxic, single point] |  |
| CC1(C)CC(=O)C2=C(C1)Oc1ncn(CCCO)c(=N)c1C2c1ccccc1 (stereo not given) | inactive |  |
| CCc1nc2ccc(C(=O)Nc3ccc(C(N)=O)cc3)cn2c1N(C)CCC(C)C | inconclusive [cytotoxic, single point] |  |
| CCCS(=O)(=O)NC(=O)C1(C)CCCN(C(=O)c2ccccc2F)C1 (stereo not given) | inactive |  |
| Cc1cccc(N=C2NC(=O)/C(=C/c3cn(C)c4ccccc34)S2)c1 | inconclusive [cytotoxic, single point] |  |
| O=C(N/N=C/c1cc(Br)ccc1OC(=O)c1ccc(Br)cc1)c1ccncc1 | active: 20.6 µM |  |
| O=C(/C=C/Nc1ccc(Oc2ccccc2Cl)cc1)c1ccco1 | inconclusive [cytotoxic, single point] |  |
| CNC(CC(=O)c1ccc([N+](=O)[O-])cc1)C(Cl)(Cl)Cl (stereo not given) | inconclusive [cytotoxic, single point] |  |
| O=[N+]([O-])c1ccc(N2CCN(Cc3cccc([N+](=O)[O-])c3)CC2)cc1 | inconclusive [cytotoxic, single point] |  |
| COc1cc2c(cc1C1C(C#N)=C(N)OC3=C1C(=O)CC(C)(C)C3)OCO2 (stereo not given) | inactive |  |
| CCn1cnc2cc(NCc3ccc(OC)cc3)ccc21 |  | inactive: -1.86% [at 9.24 µM] |
| COC1=CC(=O)c2nc(Cl)ccc2C1=O | active: 3.66 µM |  |
| CCOc1ccc(N(C)S(=O)(=O)c2cc(-c3cc(C)no3)ccc2CC)cc1 | inactive |  |
| C[C@@H](NC(=O)c1nc[nH]c1C(=O)N[C@@H](Cc1ccccc1)C(=O)OC(C)(C)C)c1ccccc1 | inconclusive [cytotoxic, single point] |  |
| Cc1cc(C)cc(NC(=S)NCCN(C2CCCCC2)C2CCCC2)c1 | inactive |  |
| C(=C\c1ccccc1)/CSc1nnc(-c2ccccc2)n1Cc1ccco1 | active: 7.08 µM |  |
| CCOc1cc(C)c(S(=O)(=O)Nc2ccc3cn[nH]c3c2)cc1C | inactive |  |
| Cc1oc2ccc(O)c(CN(C)C)c2c1C(=O)c1ccccc1 | inactive |  |
| CC(C)C(=O)N1CCN(c2ccc(NC(=O)c3ccc4c(c3)OCCO4)cc2Cl)CC1 | inconclusive [cytotoxic, single point] |  |
| CC(C)Oc1ccc(C(CCN)C2CCCCC2)cc1 (stereo not given) | active: 14.6 µM |  |
| Oc1c(N=Nc2ccccn2)ccc2ccccc12 | inconclusive [cytotoxic, partial curve] |  |
| CNC(C)C#Cc1ccc2sc3cccc(OC)c3c(=O)c2c1 (stereo not given) | inactive |  |
| CC1C(=O)N(Cc2cn(CC3CCCCC3)nn2)CCS(=O)(=O)N1Cc1ccc(-c2cccc(N(C)C)c2)cc1 (stereo not given) | inactive |  |
| CCCCSCCCNC(=O)Nc1ccc(CC)cc1 | inactive |  |
| Cc1c(NC(=O)c2ccc([N+](=O)[O-])o2)cccc1-c1nc2ncccc2o1 | active: 9.2 µM |  |
